Counter-ions that a name gives are not always drawn.
How the values were obtained:
[1] = tested on: Conscious Sprague Dawley rats; experiment: Atropine intravenous studies, heart rate and mean arterial pressure in conscious rats; format: in vivo; details: for effect on mean arterial pressure (MAP) / duration of HR increase after injection / effect on heart rate (HR): 2 mg/kg IV; for duration of HR increase after injection / effect on heart rate (HR): naive rats; for effect on heart rate (HR): P<0.05
Description: Saline was given to all animals (n=7) prior to administration of either atropine formulation. Results are set out in FIGS. 5 and 6. • P<0.05 for first 60 min after administration versus pre-drug baseline, for atropine sulfate given to naive rats. • P<0.05 for first 30 min after administration versus pre-drug baseline, for atropine sulfate given to rats treated 24 hours previously with atropine phosphate. • P<0.05 for first 30 min after administration versus pre-drug baseline, for atropine phosphate given to naive rats. […] This effect lasted for approximately 30 min after injection. • Atropine sulfate was also given (on a subsequent day) to 3 out of 4 rats that had previously received (i.e. after) atropine phosphate. […] Transdermal Patch Studies

[2] = tested on: Conscious Sprague Dawley rats; format: in vivo; details: topical administration
Description: Concious Sprague Dawley rats also received atropine sulphate 2 mg/kg by intravenous administration. Results are set out in FIGS. 7 and 8. • P<0.01 for 6 hours after atropine sulfate administration versus pre-drug baseline (1-way RM ANOVA). • P<0.01 for atropine sulfate effect versus vehicle (2-way RM ANOVA). • P<0.01 for 5 min after atropine phosphate administration versus pre-drug baseline (1-way RM ANOVA). • ^+P<0.05 for atropine phosphate treatment/time interaction versus vehicle (2-way RM ANOVA). […] This effect was significant versus its own pre-drug baseline and IV administered atropine sulphate (1-way ANOVA with repeated measures, P<0.01), as well as against the vehicle-treated group (2-way ANOVA with repeated measures, P<0.01). […] This effect was significant versus its own pre-drug baseline, as well as against the vehicle-treated group (2-way ANOVA with repeated measures, treatment/time interaction, P<0.01). […] Conclusion

SMILES	effect on mean arterial pressure (MAP) [1]	duration of HR increase after injection [1]	effect on heart rate (HR) [1]	activity compared with atropine ([1]; IV administration)	effectiveness compared with atropine [2]	time course of increased HR ([1]; 2 mg/kg IV on a subsequent day to rats previously given atropine phosphate)
CN1[C@@H]2CC[C@H]1CC(OC(=O)C(CO)c1ccccc1)C2.O=P(O)(O)O (stereo partly drawn) [Atropine phosphate, atropine phosphate]	not MAP	approximately 30 min	significant increase in HR	similarly active to atropine	less effective	
CN1[C@@H]2CC[C@H]1C[C@@H](OC(=O)C(CO)c1ccccc1)C2 (stereo partly drawn) [Atropine sulfate, atropine sulphate]	not MAP	approximately 60 min	significant increase in HR			very similar time course of increased HR

— patent publication US8841342B2, “Carrier” (Vital Health Sciences Pty. Ltd., priority 2002, dated 2014)
